Cell count data for 35 compounds are collected here from the supplement of paper PMC4604168 (melanoma cell lines).

The structures appear in SMILES notation. Some of the results follow. Repeats are few or missing, and single values can be far off.
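Further: cell number obtained by counting DAPI-stained nuclei in high-throughput microscope images with image analysis software, screen run in 1,536-well plates.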

The first test deals with SkMel5. Nature of the test: cell count relative to DMSO control; melanoma cells; higher = more viable cells. Particulars: library dose: low library concentration; 72 h.
The compound `CN(NC(=O)CC(=O)NN(C)C(=S)c1ccccc1)C(=S)c1ccccc1` + COc1ccc(-c2ccc3c(N4CCOCC4)nc(N4C[C@@H](C)O[C@@H](C)C4)nc3n2)cc1CO [KU0063794] (first compound 0.006 µM, partner dose 0.02 µM) came in with a cell count of 88.1%. Turning to `CCc1ccc(CCOc2ccc(CC3SC(=O)NC3=O)cc2)nc1` (stereo not given) [pioglitazone] + COc1ccc(COc2ccc(Cc3cnc(N)nc3N)cc2OC)cc1 [GW2580] (first compound 2 µM, partner dose 1 µM), the cell count turned out to be 102%. The same measure, in the same setting: under `Cc1ccc(NC(=O)c2cccc(N(C)C)c2)cc1NC(=O)c1ccc(O)cc1` + CCCCCCCCCCCC1=C(O)C(=O)C=C(O)C1=O [Embelin] (first compound 2 µM, partner dose 1.2 µM) stands 103%; under `Cc1ccc(NC(=O)c2cccc(N(C)C)c2)cc1NC(=O)c1ccc(O)cc1` + CCN(CC)CCCCNc1ncc2cc(-c3cc(OC)cc(OC)c3)c(NC(=O)NC(C)(C)C)nc2n1 [PD173074] (first compound 2 µM, partner dose 0.1 µM), 102%; under `CCc1ccc(CCOc2ccc(CC3SC(=O)NC3=O)cc2)nc1` (stereo not given) [pioglitazone] + CCCCCCCCCCCC1=C(O)C(=O)C=C(O)C1=O [Embelin] (first compound 2 µM, partner dose 1.2 µM), 97.3%. Same read-out and setting: under `COc1cc2c(Oc3ccc4[nH]c(C)cc4c3F)ncnc2cc1OCCCN1CCCC1` [cediranib] + CCCCCCCCCCCC1=C(O)C(=O)C=C(O)C1=O [Embelin] (first compound 0.4 µM, partner dose 1.2 µM) stands 114%; under `CC(C)(C)c1cnc(CSc2cnc(NC(=O)C3CCNCC3)s2)o1` + Cc1cc([N+](=O)[O-])ccc1NS(=O)(=O)c1cc(Cl)ccc1Cl [FH535] (first compound 0.01 µM, partner dose 1 µM), 83.4%. Take `CC(C)(C)c1cnc(CSc2cnc(NC(=O)C3CCNCC3)s2)o1` + N#Cc1c(O)c2c(-c3ccc(-c4ccccc4O)cc3)csc2[nH]c1=O [A769662] (first compound 0.01 µM, partner dose 2 µM): the cell count was found to be 102%.

For another test, the system named is UACC257. Described as above. Particulars: library dose: low library concentration; 72 h.
On to `CC(C)(C)c1cnc(CSc2cnc(NC(=O)C3CCNCC3)s2)o1` + COc1ccc2c(c1)CCC1C2CCC2(C)C(NCCCCCCN3C(=O)C=CC3=O)CCC12 [U73122] (first compound 0.01 µM, partner dose 0.4 µM), for which the cell count amounted to 86.7%. On the same count and under the same terms, under `CC(C)(C)c1cnc(CSc2cnc(NC(=O)C3CCNCC3)s2)o1` + Oc1cc(-c2nc(-c3ccccc3)[nH]c2-c2ccncc2)ccc1Cl [L779450] (first compound 0.01 µM, partner dose 0.2 µM) stands 89%; under `CC(C)(C)c1cnc(CSc2cnc(NC(=O)C3CCNCC3)s2)o1` + Cn1cc(/C=C2\C(=O)Nc3cccnc32)c2ccccc21 [GW441756] (first compound 0.01 µM, partner dose 0.4 µM), 76%. `CN(NC(=O)CC(=O)NN(C)C(=S)c1ccccc1)C(=S)c1ccccc1` + COc1cc2ncnc(Nc3ccc(Oc4ccccc4)cc3)c2cc1OC [SrcI1] (first compound 0.006 µM, partner dose 2 µM): the cell count turned out to be 83.9%. Still for that read-out and setting: under `CCc1ccc(CCOc2ccc(CC3SC(=O)NC3=O)cc2)nc1` (stereo not given) [pioglitazone] + c1cc(-c2cnn3cc(-c4ccc(OCCN5CCCCC5)cc4)cnc23)ccn1 [Dorsomorphin] (first compound 2 µM, partner dose 0.4 µM) stands 90.2%.

For `Cc1ccc(NC(=O)c2cccc(N(C)C)c2)cc1NC(=O)c1ccc(O)cc1` + Cn1cc(/C=C2\C(=O)Nc3cccnc32)c2ccccc21 [GW441756] (first compound 2 µM, partner dose 0.4 µM), the cell count is 92.8%.

`CN(NC(=O)CC(=O)NN(C)C(=S)c1ccccc1)C(=S)c1ccccc1` + O=c1cc(-c2cccc3c2Sc2ccccc2S3)oc(N2CCOCC2)c1 [KU55933] (first compound 0.006 µM, partner dose 1 µM) gave a cell count of 110%. In turn, `CC(C)(C)c1cnc(CSc2cnc(NC(=O)C3CCNCC3)s2)o1` + O=C1NC(=O)/C(=C/c2ccc(-c3ccc(F)cc3O)o2)S1 [AS252424] (first compound 0.01 µM, partner dose 1 µM) had a cell count of 93.9%. The same measure, in the same setting: to `CN(NC(=O)CC(=O)NN(C)C(=S)c1ccccc1)C(=S)c1ccccc1` + O=C(Nc1ccccc1)c1cc([N+](=O)[O-])ccc1Cl [GW9662] (first compound 0.006 µM, partner dose 2 µM) belongs 97.8%. Still for that read-out and setting: under `COc1cc2c(Oc3ccc4[nH]c(C)cc4c3F)ncnc2cc1OCCCN1CCCC1` [cediranib] + O=C(O)C(=O)Nc1sc2c(c1C(=O)O)CCNC2 [TCS401] (first compound 0.4 µM, partner dose 1.66667 µM) stands 65.9%. On the same count and under the same terms, to `CC(C)(C)c1cnc(CSc2cnc(NC(=O)C3CCNCC3)s2)o1` + O=c1cc(-c2cccc3c2Sc2ccccc2S3)oc(N2CCOCC2)c1 [KU55933] (first compound 0.01 µM, partner dose 1 µM) belongs 91.8%; to `COc1cc2c(Oc3ccc4[nH]c(C)cc4c3F)ncnc2cc1OCCCN1CCCC1` [cediranib] + CCc1ccc(CCOc2ccc(CC3SC(=O)NC3=O)cc2)nc1 [pioglitazone] (first compound 0.4 µM, partner dose 2 µM), 98.2%. For the compound `CN(NC(=O)CC(=O)NN(C)C(=S)c1ccccc1)C(=S)c1ccccc1` + O=C(O)C(=O)Nc1sc2c(c1C(=O)O)CCNC2 [TCS401] (first compound 0.006 µM, partner dose 1.66667 µM), the cell count came out at 89.7%. Consider `CN(NC(=O)CC(=O)NN(C)C(=S)c1ccccc1)C(=S)c1ccccc1` + Cn1cc(/C=C2\C(=O)Nc3cccnc32)c2ccccc21 [GW441756] (first compound 0.006 µM, partner dose 0.4 µM), for which the cell count is 88.8%.

In turn, `Cc1ccc(NC(=O)c2cccc(N(C)C)c2)cc1NC(=O)c1ccc(O)cc1` + CCc1ccc(CCOc2ccc(CC3SC(=O)NC3=O)cc2)nc1 [pioglitazone] (first compound 2 µM, partner dose 2 µM) showed a cell count of 84.5%. The compound `COc1cc2c(Oc3ccc4[nH]c(C)cc4c3F)ncnc2cc1OCCCN1CCCC1` [cediranib] + N#Cc1c(O)c2c(-c3ccc(-c4ccccc4O)cc3)csc2[nH]c1=O [A769662] (first compound 0.4 µM, partner dose 2 µM) gave a cell count of 87.2%.

In the case of `CCc1ccc(CCOc2ccc(CC3SC(=O)NC3=O)cc2)nc1` (stereo not given) [pioglitazone] + Cc1cc([N+](=O)[O-])ccc1NS(=O)(=O)c1cc(Cl)ccc1Cl [FH535] (first compound 2 µM, partner dose 1 µM), the cell count was determined as 87.1%. Take `CCc1ccc(CCOc2ccc(CC3SC(=O)NC3=O)cc2)nc1` (stereo not given) [pioglitazone] + COC(=O)c1sccc1S(=O)(=O)Nc1ccc(Nc2ccccc2)cc1OC [GSK0660] (first compound 2 µM, partner dose 1 µM): the cell count amounted to 76.6%. `COc1cc2c(Oc3ccc4[nH]c(C)cc4c3F)ncnc2cc1OCCCN1CCCC1` [cediranib] + COc1ccc(COc2ccc(Cc3cnc(N)nc3N)cc2OC)cc1 [GW2580] (first compound 0.4 µM, partner dose 1 µM) gave a cell count of 86.4%. Regarding `Cc1ccc(NC(=O)c2cccc(N(C)C)c2)cc1NC(=O)c1ccc(O)cc1` + COc1ccc2c(c1)CCC1C2CCC2(C)C(NCCCCCCN3C(=O)C=CC3=O)CCC12 [U73122] (first compound 2 µM, partner dose 0.4 µM), the cell count came to 87.9%.

Consider `CN(NC(=O)CC(=O)NN(C)C(=S)c1ccccc1)C(=S)c1ccccc1` + CCc1ccc(CCOc2ccc(CC3SC(=O)NC3=O)cc2)nc1 [pioglitazone] (first compound 0.006 µM, partner dose 2 µM), for which the cell count is 107%. In turn, `CN(NC(=O)CC(=O)NN(C)C(=S)c1ccccc1)C(=S)c1ccccc1` + Oc1nc(-c2ccc(C(F)(F)F)cc2)nc2c1CSCC2 [XAV939] (first compound 0.006 µM, partner dose 2 µM) displayed a cell count of 80.7%. The compound `CCc1ccc(CCOc2ccc(CC3SC(=O)NC3=O)cc2)nc1` (stereo not given) [pioglitazone] + CCN(CC)CCCCNc1ncc2cc(-c3cc(OC)cc(OC)c3)c(NC(=O)NC(C)(C)C)nc2n1 [PD173074] (first compound 2 µM, partner dose 0.1 µM) showed a cell count of 91.6%. Same read-out and setting: to `CN(NC(=O)CC(=O)NN(C)C(=S)c1ccccc1)C(=S)c1ccccc1` + Cc1cc([N+](=O)[O-])ccc1NS(=O)(=O)c1cc(Cl)ccc1Cl [FH535] (first compound 0.006 µM, partner dose 1 µM) belongs 94.3%; to `CC(C)(C)c1cnc(CSc2cnc(NC(=O)C3CCNCC3)s2)o1` + CCCCCCCCCCCC1=C(O)C(=O)C=C(O)C1=O [Embelin] (first compound 0.01 µM, partner dose 1.2 µM), 99.3%. As for `Cc1ccc(NC(=O)c2cccc(N(C)C)c2)cc1NC(=O)c1ccc(O)cc1` + O=C1NC(=O)/C(=C/c2ccc(-c3ccc(F)cc3O)o2)S1 [AS252424] (first compound 2 µM, partner dose 1 µM), the cell count worked out at 91.9%. On the same count and under the same terms, to `CC(C)(C)c1cnc(CSc2cnc(NC(=O)C3CCNCC3)s2)o1` + CCN(CC)CCCCNc1ncc2cc(-c3cc(OC)cc(OC)c3)c(NC(=O)NC(C)(C)C)nc2n1 [PD173074] (first compound 0.01 µM, partner dose 0.1 µM) belongs 96.3%.
